Reference: the supplement of paper PMC4166925
± gives the standard deviation of the averaged measurements. In all, about 33,000 sequences were measured (“E-score (dimensionless, -0.5 to 0.5)”: median about -0.049, highest 2% from about 0.37 on). The list shows a part of the results.

The sequences below were run on T1, PmTbr T-box DNA-binding domain (GST fusion) (assay: PBM E-score of 8-mer (E-score (dimensionless, -0.5 to 0.5)); Tbr is Tbrain of the sea star Patiria miniata (Pm) or the sea urchin Strongylocentrotus purpuratus (Sp); higher = stronger binding preference; most listed sequences are background and not binding sites). Conditions: the construct has about 5 more residues each side.
T1 sequence: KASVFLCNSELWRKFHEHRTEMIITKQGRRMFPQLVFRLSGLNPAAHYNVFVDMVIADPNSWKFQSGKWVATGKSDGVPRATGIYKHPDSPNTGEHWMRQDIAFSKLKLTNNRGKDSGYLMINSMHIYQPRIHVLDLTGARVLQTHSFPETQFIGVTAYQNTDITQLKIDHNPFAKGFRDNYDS
Procedure, shortened: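 GST-fused Tbr T-box DNA-binding domains (the whole T-box plus about five flanking residues) were expressed in BL21 E. coli at 20 °C and purified by glutathione affinity chromatography. Universal Agilent oligonucleotide arrays were made double-stranded by primer extension, incubated with 200 nM protein in PBS (pH 7.5), then scanned and quantified. Every ungapped 8-mer was scored from probe intensities. The Universal PBM Analysis Suite gave each word an enrichment E-score, averaged over duplicate arrays.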

Sequence	PBM E-score of 8-mer
CGACGGCA	-0.0228 ± 0.043
AAGCTCTA	-0.31 ± 0.066
ATCACGGG	0.0677 ± 0.015
GGAAGTAA	-0.0591 ± 0.1
CGCTGGAA	0.00137 ± 0.015
CATTCCCC	-0.067 ± 0.011
ACCATGTC	0.0732 ± 0.021
CGGTTTTA	-0.0112 ± 0.055
GCGTGACA	0.365 ± 0.0062
CTGCTATA	-0.0317 ± 0.008
CCTAAGCA	-0.0705 ± 0.079
GAAATGCA	-0.0545 ± 0.12
GCGCTGCC	0.128 ± 0.037
CAATCGAG	0.06803 ± 0.0002
CAAAAGGG	-0.119 ± 0.04
TCTGCTCA	0.00641 ± 0.038
GAAAAGAC	-0.0377 ± 0.11
CGCCTTAC	0.242 ± 0.019
GACAAATC	0.179 ± 0.0078
CTAAGACA	-0.0384 ± 0.05
GAAAAAAA	0.132 ± 0.022
CCGGTTTC	0.0411 ± 0.019

Sequence	PBM E-score of 8-mer
AGGCCCTG	-0.132 ± 0.012
CGCGCTGA	0.14 ± 0.024
AGCAGTCC	-0.233 ± 0.06
GACATTCA	0.073 ± 0.0067
GTACACGA	-0.251 ± 0.085
CCGTATGA	-0.119 ± 0.047
TTACTGAA	-0.167 ± 0.0054
ATAGATAC	-0.259 ± 0.032
GTCATAAC	0.0358 ± 0.0092
CCGGTTTA	-0.244 ± 0.026
AGGCCAGA	-0.128 ± 0.011
CCACCGGG	-0.0851 ± 0.12
CATTTAAA	-0.203 ± 0.13
GAATCATA	0.0757 ± 0.097
AAAAGTGC	0.2475 ± 0.00082
CATCACTA	0.0705 ± 0.011
CGGTGACA	0.333 ± 0.0054
AACATGTG	0.267 ± 0.019
CATAGCAC	0.306 ± 0.029
CCCCGACG	-0.0732 ± 0.002
CTAAACAG	0.0676 ± 0.071
AACCCGCG	0.216 ± 0.0078

Sequence	PBM E-score of 8-mer
CTAAAGAG	-0.15 ± 0.016
CTAGACGC	-0.0184 ± 0.035
CGTTACCA	0.0912 ± 0.01
ATTACTTA	-0.162 ± 0.1
CTTATTTC	0.0468 ± 0.1
CCGTACCA	-0.113 ± 0.064
GGCAGGAC	-0.155 ± 0.13
GAACGACA	0.106 ± 0.025
GCCTCCCA	-0.113 ± 0.083
CACTGTAC	0.0171 ± 0.019
CATAATGC	0.000495 ± 0.0089
ACGTTGCT	-0.0651 ± 0.07
AGTTTTTG	-0.0234 ± 0.019
GATTTACA	0.117 ± 0.013
GCACCGAC	-0.0215 ± 0.1
CACTACGA	-0.012 ± 0.048
GAAGCTGA	-0.114 ± 0.02
GGATTAGA	-0.28 ± 0.034
AGATAACG	0.0484 ± 0.029
TCGATTCA	0.0262 ± 0.015
CCTCATCA	-0.196 ± 0.03
ATCTCTCG	0.0243 ± 0.012

Sequence	PBM E-score of 8-mer
GTTACAGA	-0.0832 ± 0.06
ATACGAAT	-0.154 ± 0.018
CCCACGCC	0.08239 ± 0.00072
ACCGTTAC	-0.0115 ± 0.055
GGGAATTA	-0.211 ± 0.028
GACGCCTC	0.328 ± 0.029
CACTCTAA	0.0461 ± 0.013
CATTATAG	-0.04 ± 0.11
GCAGTTAC	-0.0313 ± 0.059
GTAAAGAA	-0.0605 ± 0.053
CGAATGAC	0.165 ± 0.072
AAGAAGGC	-0.0685 ± 0.02
CGTAGCTC	-0.164 ± 0.08
CATTTAAG	-0.19 ± 0.025
CACCCATG	0.181 ± 0.0036
CACTACTA	-0.0507 ± 0.03
AAAGGCAA	-0.118 ± 0.042
ATTCGCAA	0.298 ± 0.027
GGGGTCTA	-0.201 ± 0.13
GTATCCCA	-0.354 ± 0.017
GCATAGCA	0.0153 ± 0.028
AGGTGCAC	0.122 ± 0.011

Sequence	PBM E-score of 8-mer
AAGTTTAT	-0.121 ± 0.051
GACCTTGC	-0.145 ± 0.021
ACAGAAAA	-0.0987 ± 0.11
AGATCATA	-0.219 ± 0.03
CCGCAAGA	-0.079 ± 0.13
AAACTCCT	-0.129 ± 0.03
AATATAGA	-0.012 ± 0.043
AGTGCGTG	0.158 ± 0.015
GCATCGCC	0.111 ± 0.0028
GACCGAAC	-0.115 ± 0.044
ATGAGACA	-0.058 ± 0.016
GGCAAAGA	-0.132 ± 0.031
GAGTGGCC	-0.0154 ± 0.11
AATGGTTC	-0.0989 ± 0.046
ACACGTCG	0.391 ± 0.018
AACCGAGT	-0.133 ± 0.06
CAAAGCTG	0.0554 ± 0.028
AAGGTTAT	0.00739 ± 0.011
CCTGCGTA	0.0089 ± 0.029
AACTGTTA	0.227 ± 0.056
CAATAAGC	-0.0416 ± 0.028
AGTAGTAC	-0.196 ± 0.024
